Laboratory results published in PubChem BioAssay AID488969 (Vanderbilt High Throughput Screening Facility, 2010).
The full ranking holds about 110,000 compounds; the median of “z-score” is about -0.1, and the highest 2% start at about 2. Some of the results follow.

Biological target: Metabotropic glutamate receptor 8 (Rattus norvegicus) (UniProt P70579)
Experiment: rat mGluR8 modulators via GIRK flux, primary screen, cell-based, thallium flux, HTS (AID 488969)
Conditions: HEK293 rat mGluR8, GIRK (G protein-gated inwardly rectifying potassium channel) thallium flux, FluoZin2; at 10 µM; stronger effect = higher value; submaximal glutamate (EC20) added with thallium

Chain of UniProt P70579 (P70579 whole entry, looked up): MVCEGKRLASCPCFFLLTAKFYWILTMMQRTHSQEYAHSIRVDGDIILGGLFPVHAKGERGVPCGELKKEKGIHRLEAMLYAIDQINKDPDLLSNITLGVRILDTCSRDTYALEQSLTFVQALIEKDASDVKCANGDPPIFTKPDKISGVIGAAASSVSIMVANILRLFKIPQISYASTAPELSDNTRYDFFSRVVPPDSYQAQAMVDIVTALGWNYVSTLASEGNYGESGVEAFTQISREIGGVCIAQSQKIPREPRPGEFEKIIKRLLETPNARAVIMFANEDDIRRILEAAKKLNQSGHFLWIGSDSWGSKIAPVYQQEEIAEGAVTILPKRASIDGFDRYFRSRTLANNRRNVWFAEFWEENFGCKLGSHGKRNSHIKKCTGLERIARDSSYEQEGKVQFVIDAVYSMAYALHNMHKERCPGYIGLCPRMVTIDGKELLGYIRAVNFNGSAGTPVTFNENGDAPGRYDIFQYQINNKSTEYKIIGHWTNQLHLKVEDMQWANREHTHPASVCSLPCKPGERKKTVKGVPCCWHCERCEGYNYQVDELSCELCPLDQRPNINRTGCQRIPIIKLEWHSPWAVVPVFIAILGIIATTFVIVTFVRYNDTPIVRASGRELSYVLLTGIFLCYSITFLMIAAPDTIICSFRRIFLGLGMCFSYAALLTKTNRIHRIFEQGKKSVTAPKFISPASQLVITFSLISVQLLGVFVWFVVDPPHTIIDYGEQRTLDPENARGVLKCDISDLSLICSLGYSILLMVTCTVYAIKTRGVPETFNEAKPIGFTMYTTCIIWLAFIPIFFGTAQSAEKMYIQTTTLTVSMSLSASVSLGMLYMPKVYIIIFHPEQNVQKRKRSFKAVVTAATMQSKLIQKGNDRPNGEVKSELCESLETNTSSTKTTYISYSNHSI

SMILES	z-score
N#CC(c1ccccc1)N(CCCCl)C(=O)c1ccccc1 (stereo not drawn)	-0.217
O=C(Nc1ccc(N2CCN(C(=O)c3ccccc3)CC2)c(Cl)c1)c1ccco1	-0.594
O=C(O)CCS(=O)(=O)Cc1ccccc1Cl	-0.00968
CCOc1ccc(C(C(=O)NC2CCCCC2)N(C(=O)c2ccco2)c2ccc(-n3cnnn3)c(C)c2)cc1 (stereo not drawn)	0.32
Nc1nc2ccccc2n1/N=C/c1ccc(-c2ccccc2)o1	-0.307
O=C(CN(Cc1ccco1)S(=O)(=O)c1ccccc1)N/N=C/c1cccc(O)c1	-0.233
O=C(CCNS(=O)(=O)c1ccc2c(c1)CCC(=O)N2)NCc1ccc2c(c1)OCO2	0.501
C=CCOc1c2ccc(C(=O)NCc3ccc(C)cc3)cc2nn1C	-0.111
COc1ccc(Nc2nc(N)nc(CSC(=S)N3CCN(c4ccccc4)CC3)n2)cc1	-0.0024
N/C(=N\c1nc(CSc2ccc(Cl)cc2)cc(=O)[nH]1)Nc1cccc2ccccc12	-0.0689
Cc1nc2nc[nH]n2c(=O)c1NC(=O)CC12CC3CC(CC(C3)C1)C2	-0.23
COC(=O)c1ccc(Cn2nc(C)c(Cl)c2C)o1	0.241
COc1ccc(OCC(=O)NNC(=O)Cc2coc3cc(OC)ccc23)cc1	0.0448
COc1ccc2c(c1)CC/C(=C\c1ccc(OC)c(Cn3nc(C)cc3C)c1)C2=O	0.459
CCOC(=O)c1sc(NC(=O)CSc2nc(-c3ccco3)cc(C(F)(F)F)n2)c(C(=O)OC)c1C	-0.0236
Cc1nn(-c2ccc(F)cc2)c(Cl)c1/C=C(\CCC(=O)O)c1nc2ccccc2s1	-0.979
COc1cc(C2c3c(oc4ccccc4c3=O)C(=O)N2Cc2ccco2)ccc1O (stereo not drawn)	-0.106
CN(C)c1ccc(/C(=N\O)c2ccccc2)cc1	0.0213
CCOC(=O)C1C2C=CC3(CN(Cc4ccco4)C(=O)C13)O2 (stereo not drawn)	-0.327
COc1cccc(NC(=O)CSc2nnc(Cn3nnc4ccccc43)n2C)c1	0.0801
CCOC(=O)c1c(-c2ccc(C)c(C)c2)csc1NC(=O)C1CC=CCC1C(=O)O (stereo not drawn)	-0.108
COc1cc(CCNC(=O)c2cnn3ccccc23)cc(OC)c1OC	-0.515
CCOC(=O)C1CCN(c2c(-c3ccccc3)c3cc(Cl)ccc3[nH]c2=O)CC1	-0.019
O=C(Cn1c(C(F)(F)F)nc2ccccc21)Oc1cccc(C(F)(F)F)c1	-0.288
CN(C)S(=O)(=O)c1cc(NC(=O)COC(=O)C2CSC3(C)CCC(=O)N23)ccc1Cl (stereo not drawn)	0.312
Cc1ccc(Sc2cc(C(F)(F)F)nc(N(C)C)n2)cc1	-0.334
O=C(CCN1CCC(c2ccccc2)C1)c1cccs1 (stereo not drawn)	-0.0676
CCOC(=O)C1=C(N)OC2=C(C(=O)CCC2)C1c1ccccc1OCC (stereo not drawn)	-0.846
